Experimental data: publication PMC10668032
The other results are listed elsewhere or left out. At the low end of the ranking the order means little.

biological target: SIX1-Q177R homeodomain (UniProt Q15475); assay: universal protein binding microarray; details: Universal all-10-mer PBM (8x60K, AMADID 030236), 300 nM GST-tagged protein, Alexa Fluor 488 anti-GST; buffer, salt, pH and temperature not stated; high values mean tight binding; most listed sequences are background and not binding sites; double strand, one strand shown

Sequence | binding signal [E-score]
ATTGTTGA | 0.107
CCTAGACA | 0.199
AACCATGT | -0.105
GACACTAC | 0.434
ACGGGTAG | 0.153
CAGCGCAG | 0.0298
CCCGAAGC | 0.12
AGGAGATA | -0.0808
GGGGAGAA | -0.0683
GATGGTGA | -0.177
ACGCCCAT | 0.112
CAGTGGTA | 0.0072
AGCTCTCA | -0.0526
CATTGCCG | -0.0863
ACACATAT | 0.239
GCCCTACC | 0.0917
CCTCAGCA | 0.022
GTAGTTAA | 0.146
AGGCCGGG | 0.0289
ATTCATAG | -0.123
CGCCCCCA | 0.166
AATCGGTG | 0.317
CCCATGAA | 0.068
TACTCCCA | 0.16
GGCTTCAA | -0.161

Sequence | binding signal [E-score]
GTCATCCA | 0.0663
ATCATGTG | 0.0343
CTCAGGCC | -0.119
AACGTGTA | 0.353
CCCTAGCA | 0.17
CTTCGGAA | -0.0623
ACCAACAG | 0.137
GATTATGC | 0.0684
AGCTCGTC | -0.197
AACACACA | 0.262
AAGTCAGT | -0.0376
CCCCCGGA | 0.263
CGAACTAA | -0.155
ATCACTCG | 0.0123
CTGGCTCC | -0.151
CGAGGCAC | -0.0452
ATTCCATC | -0.176
ACATTAGA | -0.153
CCAAGTGG | 0.0372
GTGGAAAC | -0.158
AATAAGAT | -0.145
GTGTTTGA | 0.35
AACATAAT | -0.249
AAGGTTGA | -0.201
AGTCCGAA | -0.169

Sequence | binding signal [E-score]
CACTCCAG | 0.225
CACAAGGA | 0.0271
AGGGGATC | 0.207
AGGGCACA | 0.128
AATGGACT | -0.254
AGTTACTC | 0.0169
CTGACCAC | -0.216
CTGGTGCA | 0.234
ATTCGAAG | -0.23
TGATACAA | 0.0915
GGGGGGAA | -0.0687
CATCGGGG | 0.139
GTATCATA | 0.29
AAATAGTA | -0.0489
ATGAAATG | -0.167
AGCTAAGC | -0.256
CGATCTAG | -0.114
ACACGTTA | 0.297
CAATCGGC | -0.266
AATTCCAT | -0.16
CAACAATG | 0.212
GACCAAAC | -0.0383
AGCCATCC | -0.107
AAAGTGCT | -0.0967
CCGCAGGC | 0.174

Sequence | binding signal [E-score]
CCTCCAGG | 0.0531
ATGCAGTA | -0.0516
CAATTGTA | -0.132
ACTCCCCA | 0.163
AGGGGGTA | 0.358
CGCTACAA | -0.269
CCGTATCC | 0.122
CACACATC | 0.0348
CCCTTACG | -0.0335
GAACACTC | 0.374
CACCGACG | 0.304
TAACTACA | 0.239
CCTGTTAG | 0.00577
AGTCTCAC | -0.125
AATTTACC | 0.0141
GTCGAATA | -0.0512
ACTAATGC | 0.0774
ATGATTAA | -0.224
AATAGTAA | -0.278
ACATATGC | -0.117
AGTAGGAG | 0.0738
ATGAACTA | -0.0948
CTGTAGCC | -0.102
CCGTGAGA | -0.109
CAGGCCTA | -0.0805

Sequence | binding signal [E-score]
AGGCGTCC | -0.0248
ATTAGACA | 0.0182
ATCGAATA | -0.0157
CAAGATTG | -0.0628
AGGTACAA | -0.156
GAGACCAC | -0.162
GAACTATC | -0.103
ATTGGAAC | 0.0862
CATAACCA | -0.00413
AATCATAA | 0.115
CAGTAGAA | -0.176
TACGTACA | 0.18
GTATGGGA | 0.0596
CAAACGGC | -0.237
TGGGGCAA | -0.252
AAAACTCC | -0.0377
CGCATGGA | 0.0866
CCGCCTAC | 0.0564
AACAATGT | -0.12
CGTTCGGA | -0.057
AAAAGCCT | -0.343
AAGGAGGT | 0.091
TGCCGAAA | -0.0602
CGGATCAC | 0.174
ATGCTGCG | -0.0813

Sequence | binding signal [E-score]
AGTCTGAT | -0.0468
TACGAAAA | -0.00785
TAGACGAA | -0.11
ACGAAACA | 0.0241
GACAAAGA | 0.00447
GCTTGTCC | -0.125
AGGTATAC | 0.0967
CCAGGGGC | -0.0582
ATCAAGAC | 0.0588
CAAGTCAC | -0.0776
CTATAGGC | -0.228
ATGGCCTA | -0.0818
GGAGGGAA | -0.117
ATAATCAA | -0.0903
ACTCTTCA | -0.0456
CGTTGTAG | -0.0521
CGCTGCCG | -0.0806
ACCAGTGG | 0.189
ATGGGAAG | -0.136
CCCAGAAA | 0.137
CTTACCTC | -0.282
GATACTTA | 0.0931
CAAGGCTA | -0.218
AGCATGAC | -0.012
CGTAGGTC | -0.15

Sequence | binding signal [E-score]
AGATAACA | 0.0446
AAATTTAT | -0.246
ACGAGCCT | 0.0806
CGTCACGC | 0.00816
ACAACATC | -0.322
CGTTCAAC | 0.136
ACAGTGGT | 0.0251
ACTGTGCG | -0.0964
ATTTTAGG | -0.0923
ACCATATC | -0.0618
CAGTCCCC | -0.269
CTGACGTC | -0.00497
CAACAAGC | -0.0815
ATCTCTTG | -0.00257
GAGAACAA | -0.27
CGTGGAAA | -0.127
AGCCGACA | 0.221
GTTAAGGA | 0.163
GCAGTCCC | -0.152
AATGCTAT | -0.101
AGGCTGGG | 0.00773
AAGAGCAT | -0.0832
GGGATGTA | 0.159
ACTCTGAA | -0.0269
AACCGCGT | 0.0779

Sequence | binding signal [E-score]
CCCAATCA | -0.0903
CAGTCCGG | -0.00157
ACTGTCAT | -0.00922
GGCTATAA | -0.0255
AGCATGAA | -0.211
AACCACGC | -0.0526
CAACGAGG | 0.149
CGAAATCG | -0.224
AGATACCC | 0.278
CACCGGTC | 0.21
AATCAGTC | -0.185
GGCCACAA | 0.023
GTCGTTGA | 0.0916
ATCGTAAG | -0.132
AGTGATTG | -0.207
CTAAAGAC | 0.0356
AGAGCAGA | -0.256
AACACGAG | 0.361
TCCGTACA | 0.136
TCAACGAA | -0.124
GTTGCTGA | -0.144
AACTGTAT | -0.225
CGGTTCCC | -0.211
CACGTCAG | 0.0314
ACACTGCA | 0.385

Sequence | binding signal [E-score]
CGACATAG | -0.253
AGCTGACT | -0.177
CCCATTCA | -0.0702
CCAAGAGG | -0.00346
CTCAACAC | 0.393
AAACCAAC | -0.134
GAGGTCAA | -0.11
GGGATATA | 0.0559
AGTGGATC | 0.216
ACAGTCTC | 0.00219
ACCCGGTA | 0.236
TTTACAAA | -0.0198
CACGATTC | 0.169
GCTAGCGA | -0.287
GTAGAGAC | -0.108
GTATAGTA | -0.0218
AGGTTCAT | -0.16
CTGCGGAA | -0.00894
ATTTATTG | -0.148
AGTTCTTC | -0.11
TCGCAACA | -0.0369
GATGTTGC | -0.193
AACGTCCG | -0.00294
GATTCCCA | -0.16
CAAAACAG | -0.0244

Sequence | binding signal [E-score]
TAACGTGA | -0.134
TGCAGGCA | -0.0365
AGACGTTG | -0.167
GGGTCCCA | 0.152
AAGCAAAG | -0.0891
ATTAAGAG | 0.0363
CAAAACAA | -0.232
GTTATTCA | -0.175
ACATGCGC | -0.185
ATCTCGTA | -0.0887
CACAGGGA | 0.108
AGGCCCGC | -0.362
AGACAATG | -0.0882
AGGTAGTG | 0.249
GATAGCTA | -0.167
AGGCGCTG | -0.149
GGGAGTTA | 0.208
CATAAACC | 0.0349
CATGCCGG | -0.0475
AGTTTTTG | -0.00647
CCGCCTCC | -0.157
ACCGAACT | 0.0192
AAGATGCT | -0.296
GATGATAC | 0.242
TAACAAAA | -0.21

Sequence | binding signal [E-score]
ACTGACAG | -0.212
CCAAGTCC | -0.176
CTGTACAC | 0.412
CTCTCGCC | -0.239
CAACATAG | -0.0916
CACGTTAC | 0.179
ATTCTATA | -0.109
ACCTATCC | 0.0324
ACGCCACA | 0.134
ACCGAAGG | 0.0855
GCCAGCCC | -0.0722
ATCCGAGA | 0.00829
AGATCGTG | 0.0176
AACAAGTC | -0.346
CACATAGC | -0.0235
GAGAGCCC | -0.186
CCAGACAG | -0.0536
GATGCAAC | -0.0637
CATCTATA | -0.0927
ATTCTTGA | -0.0493
AAGGAAGG | -0.075
ACCAGTGC | 0.119
CGATATGA | -0.208
CACTCTGA | 0.239
CGTCTTAG | -0.144

Sequence | binding signal [E-score]
ATTTAACG | -0.218
CCGCGAAC | 0.118
TAGCGACA | 0.172
AACATCCT | -0.263
CCAGAGAG | -0.146
GACGTTAC | -0.0764
GATGTACC | 0.12
TGTTCTAA | 0.0882
GACCGATC | -0.224
AGCGCACT | -0.0305
GGGACCAA | -0.273
ATGTAATC | -0.0727
TAAGACTA | 0.0576
CACGAGAA | 0.202
CCACCGGC | 0.0601
CCCGGCAC | 0.0771
CACTAACA | 0.284
TAGTTACA | 0.249
GCATTTCA | -0.214
CCGCAAAC | 0.0835
CCGTAACC | -0.155
AAGCTGCT | -0.19
TGCTATAA | -0.105
ACTCGTTA | 0.0117
AGCCAACT | -0.116

Sequence | binding signal [E-score]
GCCGGAGA | -0.187
GAACAACA | 0.114
CAGACGAA | -0.23
GCAAAGAA | -0.0975
CGGGGATC | 0.212
CGACGATC | -0.0476
CACACCGA | 0.405
CAGGCTCC | -0.167
ACCCTCTG | 0.136
AACTTGAC | -0.109
AGTGCTAC | 0.0178
ATTCCCCC | -0.0313
ACTCGCCA | 0.0406
GCCCGGTA | 0.00312
GTAGGATA | 0.0821
AAGATGTA | -0.132
TGTGCACA | 0.21
CCTTGTAA | 0.244
AATTTAAC | -0.0313
CCATCATA | -0.197
CAAAACCG | -0.077
AAATAGTC | -0.186
ATCGAGGG | 0.167
GAGATATA | 0.0915
TGACCCCA | 0.279

Sequence | binding signal [E-score]
CTACAGAG | -0.0145
ATGGGATA | 0.0848
CTAGTGAG | -0.0634
CAGGCATC | -0.111
CAAGTTAG | 0.12
CCGCGTAG | 0.126
AATACTGC | -0.183
ATGAGGCA | -0.037
ACTGCCAG | -0.204
CATGTTAG | -0.236
CCTTACAG | -0.0896
AAGTTTCG | -0.161
CGAGTGTC | 0.415
ATACGGGA | 0.0651
TAGACCCA | -0.0384
AACCAGGG | 0.0694
AGACTAAG | -0.101
AACTTTTG | -0.227
AGGCGCCT | -0.126
